In the supplement of paper PMC10126150:
Sequences with one replicate were seen in a single cluster, so their values are uncertain.

Tested on: ATP
Assay: switch fluorescence ratio, 500 uM ATP over buffer (Cy3 cluster intensity, sum of 5 cycles each) (fold (ratio)); higher = stronger signal-on switching upon ATP binding; sequences stand for … in TCGTCGGCAGCGTCAGATGTGTATAAGAGACAGTTTTTTTTTTTTTTTTTTTTTTTTT…TC
Conditions: aptamer strand: ATP DNA aptamer (quencher-CACCTGGGGGAGTATTGCGGAGGAAGG + anchor), 100 nM annealed; ATP concentration: 500 uM; one replicate
Method in brief: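 Five buffer/ATP imaging cycles were run on Cy3-labelled switching-strand clusters on a modified Illumina MiSeq flow-cell, with NaOH stripping and re-annealing between cycles. In each cycle, clusters annealed to 100 nM quencher-labelled ATP aptamer were imaged in selection buffer, then after 15 min with 500 uM ATP at 22 °C. Per cluster, the fluorescence ratio is summed target-cycle over summed buffer-cycle Cy3 intensity, averaged per switch-domain sequence. Only clusters within 100-1000 RFU were kept.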
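Also: ATP exposure 15 min at 22 °C before imaging.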

Row | Sequence | switch fluorescence ratio
1 | TATACCGGCT | 1.08
2 | TACCGCACGC | 3.32
3 | GCCTTAAGAG | 1.01
4 | TCAAACATGC | 1.02
5 | TAACTCTAGC | 0.987
6 | CAACGGATGG | 0.989
7 | CCGCACGGGT | 1.33
8 | CCAACACAAC | 1.95
9 | CATTTACGT | 1.03
10 | CCCAATGG | 1.87
11 | GTGTGTTGGT | 0.939
12 | GCCGCATCCA | 1.11
13 | TCCAGTGGTC | 1.04
14 | TCCGATACGT | 1.24
15 | TTGGTCAGTA | 1.1
16 | ACGTCGTAT | 0.964
17 | ATGCGAGA | 0.968
18 | CTCCTGCCTC | 2.71
19 | TTCAGTTCTC | 1.14
20 | TACTAGAACG | 1.08
21 | GAAGTCGATG | 1.02
22 | TAGTCTCGTA | 0.974
23 | ATTCATGCC | 1.02
24 | GATAAAGGAA | 0.989
25 | TGTTGGCCAA | 0.997
26 | GGTTCGAGTC | 1.05

Row | Sequence | switch fluorescence ratio
27 | AGGGGCACGT | 0.991
28 | ATATGCATTT | 1
29 | GGCCCGACTT | 0.999
30 | AAATCTACCC | 1.15
31 | GCTTATGTTT | 1
32 | GCGGTATCTT | 1
33 | ATCTTGTACG | 1.06
34 | CCCGAAGGGT | 1.11
35 | TCTGCATGCG | 1.08
36 | GTATTTACGG | 1.03
37 | CGGGACTTGC | 1.06
38 | AAAGTTGCCA | 1.02
39 | TTTATAATT | 1
40 | CTTATGCACT | 1.02
41 | GTAATTATTT | 1.03
42 | TGGTTACGG | 0.99
43 | TACGAGGCAT | 3.3
44 | TGCTTATAT | 1.03
45 | CTTCGGCGGC | 1.16
46 | CGCTTAAATT | 0.989
47 | AAAATTAACC | 1.07
48 | CGCTAGGAGC | 1.04
49 | TAGTTGATAC | 1.18
50 | ACCTAAGGG | 1.01
51 | TTTGTATGAC | 1.42
52 | CGGGGCTTCA | 1

Row | Sequence | switch fluorescence ratio
53 | TTCCAGAGGT | 0.994
54 | CTACGTATGC | 1.74
55 | TGTTCAATA | 0.983
56 | TGTTATTAG | 0.972
57 | CGGAGTTATT | 1.06
58 | GCATGCGGGC | 1.02
59 | TTGTATAGTC | 0.94
60 | GAGGATGGCC | 0.972
61 | CGTAGCTTGT | 1.13
62 | CGGGTGTC | 1.07
63 | CCATAGCGGT | 5.45
64 | GAGACTGCAT | 0.999
65 | GATGGGAAAC | 1.1
66 | ATCTGGGATT | 1.03
67 | GAATCCATAG | 1.02
68 | GTTATCTGCC | 1.02
69 | TTGAGTGACT | 1.01
70 | TCGGAGAGTT | 1.01
71 | TTAGCTCCGG | 1.04
72 | GGTTAGATTA | 0.982
73 | TCTATTGACG | 0.858
74 | CTGTTATAGT | 0.983
75 | CAGAGTACGG | 0.963
76 | CATTGACTGC | 1.08
77 | AGTTGTGTTG | 1.01
78 | GTTTAGTAGA | 1.05

Row | Sequence | switch fluorescence ratio
79 | CAGTGTCTGG | 0.996
80 | AAGATCATAG | 1.05
81 | GAACGTCGAG | 0.998
82 | AATCGGAGGT | 1.04
83 | GTGAAGAG | 0.951
84 | TACGGAAAAG | 1.01
85 | TTTTAAGTCC | 1.07
86 | CCATTGCTTC | 1.18
87 | TCAGATAATA | 0.981
88 | ATGTTCACTA | 1.05
89 | CAAGACGCGG | 0.997
90 | GATTTAAACG | 0.962
91 | GTGGACGTAT | 1
92 | CGCCAGGCGG | 1.04
93 | CTGAATCGGG | 1.02
94 | CCGGACTCCG | 2.92
95 | GTGTTTCAGA | 0.997
96 | TTTGACTCCA | 1.06
97 | AATGGATCTA | 1
98 | GCGTCCGGTA | 1.06
99 | TCTACTTATA | 0.989
100 | TGTATCCAAC | 1
101 | TCGGGGCCCA | 1.03
102 | TTGATAGTGT | 1.01
103 | CAGTGCGATT | 0.983
104 | TATGTACTT | 1.04

Row | Sequence | switch fluorescence ratio
105 | TGTCTATACT | 1.12
106 | TCCTGCACGG | 1.04
107 | CAGTCATTCT | 1.01
108 | GTGTGGTTGA | 1
109 | TCTGCGTCCC | 1.03
110 | GAAAAAAATG | 1.01
111 | TATAACATAG | 1.02
112 | GCACATTTCC | 1.23
113 | TTCAATCAT | 1.04
114 | AGCCACGAAA | 1.11
115 | TAGCCTCTCC | 1.73
116 | TACCATAAGG | 1.03
117 | CCGAATGTTG | 1.03
118 | AAGGTTTTAG | 1.01
119 | ATGACCAGCA | 1.11
120 | ACTATGGCAG | 1.04
121 | AGGGCGTGAC | 0.999
122 | CTTCCCTTGT | 1.03
123 | TAATCTTTCA | 1.03
124 | GGGGTGTTTC | 0.963
125 | CAGATGTGGA | 0.997
126 | CGATAGACCT | 1.18
127 | TTATTGCATT | 0.989
128 | ATGTATTCGG | 0.998
129 | TTTGAGTCGT | 1.02
130 | AATTGGAAAG | 1.03

Row | Sequence | switch fluorescence ratio
131 | CACCTAGGA | 0.987
132 | TTGCTGCCCC | 1.02
133 | ACGAGGCTAC | 4.47
134 | GAGCAAATTA | 1.2
135 | TAGCTCAAAC | 0.993
136 | ACGTCATGCA | 1.15
137 | GATGACACGC | 1.08
138 | GTCTGGAATA | 1.27
139 | ATTCTAACGG | 1.03
140 | GCTGTTTAGT | 1.02
141 | CTACAATTCT | 1.06
142 | GTGAGCAGCA | 1.03
143 | TGCCTGACAC | 1.05
144 | TTGACGAAC | 1.37
145 | CGCGGTAGTA | 1.03
146 | AGACTGCAGC | 1.02
147 | ATAGTATGAC | 1.05
148 | CTGCAATTAT | 4.74
149 | AACAGCGGCG | 0.975
150 | GGTGGCTCTC | 0.964
151 | TAAAGAGGAG | 0.979
152 | CATTTTAA | 0.982
153 | TCGTTGTAAG | 1.03
154 | TTCAACGTTG | 1.03
